# The campaign covered roughly 150,000 compounds. About 540 (0.36%) showed an effect of 50% or more. Some of the results follow.
# Tested on: Plasmodium falciparum
# Assay: Primary screen in NF54 nanoGlo assay, in single point, at 2uM, 72h; a lower Z score goes with more inhibition
# Format: functional, Erythrocyte
# Details: timepoint 72 hour
Compound,% Inhibition [%],Z score
COC(=O)C1CCN2C(=O)N(c3ccc(OCC(C)C)nc3)C(=O)C2C1 (stereo not drawn),1,-0.13
COCCn1cc(CC(=O)Nc2cccc(C)c2)c2cccnc21,-16,1.89
CCC(=O)N1CCCN(C(=O)c2cccc3cn[nH]c23)CC1,0,-0.03
Cc1csc([C@@H](C)CNC(=O)N(C)Cc2ncnn2CC(F)F)n1,3,-0.49
COC(=O)C[C@H](O)CCn1c(-c2ccc(F)cc2)c(-c2ccccc2)c(C(=O)Nc2ccccc2)c1C(C)C,-21,2.42
CC[C@H]1CN(c2ccccc2)CCN1C(=O)NCC1(C)COC1,-5,0.54
CC(=O)Nc1c(-c2ccc(C)cc2)c(C)nn1-c1ccc(C(=O)N2CCN(c3ccccc3)CC2)cc1,14,-1.62
Cc1sc(C(=O)N2CCC(O)CC2)cc1-c1ccc(F)cc1,-1,0.19
Nc1nc2c(s1)C[C@@H](NC(=O)Cn1ccccc1=O)CC2,-14,1.98
CC(C)OCCCNc1ncnc2c1OCCN2,-12,1.71
CN1CCC(N(CCc2ccccc2)C(=O)c2c(Cl)cnn2C)CC1,-8,1.02
O=C(Nc1cccnc1C(F)(F)F)c1cc2n(n1)CCCO2,-9,1.31
CC(C)n1ccnc1C(=O)NCCOCC(F)(F)F,12,-1.36
CCS(=O)(=O)N1CC(=O)N(c2cc(OC)cc(OC)c2)[C@](C)(C(=O)NC2CCCCCCC2)C1,-16,1.95
COc1nccc(N2CC[C@H](NC(=O)c3ccccn3)[C@@H](O)C2)c1C#N,7,-0.95
CC(C)CC1=NN(c2nc(-c3ccccn3)cs2)[C@@](O)(C(F)(F)F)C1,15,-2.47
COc1ccc(N(C)S(=O)(=O)CCCCC#N)cc1Cl,-4,0.45
Cc1nn(C)c2nc(-c3ccncc3)nc(N[C@H]3C[C@@H]4CC[C@H]3C4)c12,14,-2.77
O=C(NCC1CC1)[C@H]1CC(=O)N(CC2CCN(C(=O)C3CCOCC3)CC2)C1,-1,0.11
COc1ccccc1CCC(=O)N1CCCCC[C@H]1c1nnc(C)o1,-8,1.61
O=C(Nc1ccnn1C1CCN(Cc2ccccn2)CC1)c1cccnc1,2,-0.35
Cc1nn(C)cc1NC(=O)c1cnn(C(C)C)c1,-6,0.83
O=S(=O)(Nc1ccc(S(=O)(=O)N2CCCC2)cc1)c1ccc(F)cc1F,-12,1.83
O=C(COC(=O)CN1C(=O)c2ccccc2C1=O)NCCc1ccccc1,-2,0.26
Cc1cc2n(n1)CCN(C[C@@H]1[C@H]3CN(C(=O)c4c(C)noc4C)C[C@@H]13)C2,-4,0.71
Cc1nnc(CN2CCN(c3nonc3C)CC2)s1,-9,1.63
CC(C)NC(=O)c1cn2c(n1)CC[C@H](c1ccc(Oc3ccccc3)cc1)C2,9,-1.19

Compound,% Inhibition [%],Z score
C[C@@H](CNC(=O)NC1CCCCC1)CN1CCCC1,-3,0.43
Cc1ccnc(N(C(=O)c2ccc(F)cc2)C(=O)c2ccc(F)cc2)c1,-13,1.7
Cc1cccc2nc(C(=O)NCCc3ncnn3C)c(F)n12,-11,1.56
Cc1noc(C)c1C[C@H](C)C(=O)Nc1nccc2ccncc12,-16,2.53
COc1ccccc1OC1(C(=O)O)CCN(Cc2ccc(F)cc2F)CC1,-4,0.71
CC[C@H](Nc1cccc(COCC(F)(F)C(F)F)c1)C(N)=O,-3,0.44
COc1ncccc1C(=O)NCc1ccnc(-c2ccco2)c1,0,0.02
Cn1c(=O)n([C@@H]2CCN(C(=O)c3ccsc3)C2)c2ncccc21,-8,1.38
Cc1cnc(C)c(N2C[C@H]3CC[C@@H](C2)N(CC2CC2)C3)n1,1,-0.18
NCCN1C(=O)CC[C@@H]2CN(c3ccc(-c4ccccc4)nn3)CC[C@@H]21,-18,1.82
CN(CCCn1cccn1)C(=O)c1csc(N)n1,-6,1.01
Cc1noc(CNS(=O)(=O)Cc2ccccc2)n1,-3,0.47
O=C(N[C@@H](C1CCOCC1)C1(CO)CCC1)C1Cc2ccccc2C1,3,-0.47
O=C1CCCc2cn(nn2)CCNC(=O)[C@H](Cc2ccccc2)N1,-1,0.22
Cc1n[nH]cc1CN(C)Cc1[nH]cnc1C,-4,0.71
CCc1cc(C(=O)N2CC(c3nc4ccccc4[nH]3)C2)n(C)n1,-5,0.64
CC(NC(C(N)=O)c1cccc(Br)c1)c1ccco1 (stereo not drawn),1,-0.16
CCn1nc(-c2cccc([C@H](C)OC)c2)nc1N(C)C,-17,1.56
COC1CN(C(=O)c2oc(C3CC3)nc2C)C1,2,-0.34
CC[C@@H](c1ccc(F)cc1)n1cnc2c(cnc(=O)n2C)c1=O,-10,2.19
CC(C(=O)Nc1cccc(C(F)(F)F)c1)(C(F)(F)F)C(F)(F)F,-16,3.05
CCCNC(=O)c1[nH]cnc1C(=O)NCC1CCCCC1,4,-0.79
CC(=O)NCCNS(=O)(=O)c1cc(N(C)C)ccc1Br,23,-2.58
Cc1coc2ccc(NC(=O)NCC(F)(F)F)cc12,0,0
CC(C)C[C@H](C)N(C)C(=O)c1cc(S(=O)(=O)N2CCCC2)c[nH]1,-10,1.03
CCc1nccc(CN2CC[C@H](O)CC(C)(C)C2)n1,-1,0.1
CCCNC(=O)N(CC(=O)N1CCN(c2ccc(-c3ccc(OC)c(OC)c3)nn2)CC1)Cc1ccco1,-14,1.2

# Reference: ChEMBL document CHEMBL4888484, “Replenishing the malaria drug discovery pipeline: Screening and hit evaluation of the MMV Hit Generation Library 1 (HGL1) against asexual blood stage Plasmodium falciparum ,using a nano luciferase reporter read-out” (2022)
